Over roughly 110,000 compounds, “z-score” has its median near -0.1; the highest 2% begin near 2. Some of the results follow.

The experiment has as its target Metabotropic glutamate receptor 8 (Rattus norvegicus) (UniProt P70579). Briefly: rat mGluR8 modulators via GIRK flux, primary screen, cell-based, thallium flux, HTS (AID 488969). The settings on record: HEK293 rat mGluR8, GIRK (G protein-gated inwardly rectifying potassium channel) thallium flux, FluoZin2; at 10 µM; stronger effect = higher value; submaximal glutamate (EC20) added with thallium.
UniProt P70579, sequence (P70579 whole entry, looked up): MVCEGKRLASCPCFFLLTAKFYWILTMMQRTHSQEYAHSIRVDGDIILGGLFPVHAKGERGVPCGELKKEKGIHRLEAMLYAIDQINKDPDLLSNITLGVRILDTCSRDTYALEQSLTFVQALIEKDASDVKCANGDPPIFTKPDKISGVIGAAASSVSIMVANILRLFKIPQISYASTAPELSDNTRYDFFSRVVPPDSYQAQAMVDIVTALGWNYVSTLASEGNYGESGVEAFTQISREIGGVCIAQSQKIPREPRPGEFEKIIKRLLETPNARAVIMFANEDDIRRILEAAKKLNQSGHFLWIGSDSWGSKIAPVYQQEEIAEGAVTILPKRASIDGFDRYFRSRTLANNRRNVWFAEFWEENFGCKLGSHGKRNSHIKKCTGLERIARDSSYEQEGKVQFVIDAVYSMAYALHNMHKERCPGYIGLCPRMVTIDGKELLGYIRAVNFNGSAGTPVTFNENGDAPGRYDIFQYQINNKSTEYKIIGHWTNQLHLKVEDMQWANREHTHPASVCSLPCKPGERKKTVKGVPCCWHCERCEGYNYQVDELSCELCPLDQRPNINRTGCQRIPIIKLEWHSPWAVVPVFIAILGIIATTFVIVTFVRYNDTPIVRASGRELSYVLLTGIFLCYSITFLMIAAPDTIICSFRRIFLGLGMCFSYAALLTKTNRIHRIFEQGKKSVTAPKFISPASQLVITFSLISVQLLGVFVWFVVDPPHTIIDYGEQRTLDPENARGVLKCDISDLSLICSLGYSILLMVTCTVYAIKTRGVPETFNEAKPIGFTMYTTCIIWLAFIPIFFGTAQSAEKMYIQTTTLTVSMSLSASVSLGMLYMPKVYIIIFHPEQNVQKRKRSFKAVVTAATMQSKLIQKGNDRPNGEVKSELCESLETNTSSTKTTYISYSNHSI
Turning to `CCOc1ccc(-n2cnnn2)cc1S(=O)(=O)NC1CC1`, the z-score worked out at 0.0855.
In the case of `O=C(Nc1ccc(Cc2ccc(NC(=O)C3CC3)c(O)c2)cc1O)C1CC1` it was -0.405; in that of `CCCn1c(CNc2ccc(Br)cc2)nc2ccccc21`, -1.43; in that of `Cc1cc(=O)n2cc(-c3ccccc3)nc2[nH]1`, -0.318.
In the case of `C=CCc1cc(/C=N\NC(=O)CSc2nnc(CCCc3ccc(OC)c(C)c3)o2)cc(OC)c1O` it was -0.175; in that of `CC(=O)N/N=C/c1cc(C)n(-c2ccc(Br)cc2)c1C`, -0.334.
In the case of `COc1ccc(/C=C/C(=O)NC(=S)NNC(=O)c2c(-c3ccccc3)noc2C)cc1` it was -1.66; in that of `CCOC(=O)C1=C(C)C2C3C(=O)N(c4ccc(C)cc4C)C(=O)C3C1(C)C1C(=O)N(c3ccc(C)cc3C)C(=O)C21` (stereo unspecified), -0.165.
`CCC(CC)C(=O)Nc1cc(C)c2c(=O)oc3ccccc3c2n1` showed a z-score of 0.182.
In the case of `CCCn1nnc(NC(=O)c2ccccc2Br)n1` it was 0.283.
In the case of `CCCOc1ccc(/C=N/NC(=S)Nc2ccccc2[N+](=O)[O-])c(O)c1` it was 0.135.
In the case of `c1ccc2c(c1)OCC(c1nnc3sc(-c4cnccn4)nn13)O2` (stereo unspecified) it was -0.402.
Consider `CN(C)S(=O)(=O)N1CCN(C(=O)N2CCCCC2)CC1`, for which the z-score was -0.112.
In the case of `CCOC(=O)C(NCCCCl)c1ccccc1` (stereo unspecified) it was 0.0382; in that of `COc1ccc(NC(=O)C2CCN(C(=O)c3cccs3)CC2)cc1OC`, -0.079; in that of `CNC(=O)CN(c1cc(C)ccc1C)S(C)(=O)=O`, 0.318.
In the case of `OC(COc1ccc2ccccc2c1Cl)CN1CCOCC1` (stereo unspecified) it was -0.0833; in that of `O=C1CCC(=O)N1CN(C(=O)c1ccco1)c1ccc(Cl)c(Cl)c1`, 0.0507; in that of `CCSC1=NC(=O)/C(=C2/C=Cc3ccccc3N2CC)S1`, 0.17.
In the case of `COC(=O)c1[nH]c2ccc(Br)cc2c1NC(=O)Oc1ccccc1` it was -0.126; in that of `Cc1cc(=O)n(CCO)c(O)c1C#N`, -0.121; in that of `O=C(COC(=O)c1cc([N+](=O)[O-])ccc1NCc1ccccc1Cl)NCC(F)(F)F`, -0.136.
For the compound `Cc1nnsc1NC(=O)OCC(C)(C)C`, the z-score is -0.0133.
In the case of `CCOC(=O)c1ccc(N2C(=O)CC(N3CC(C)OC(C)C3)C2=O)cc1` (stereo unspecified) it was -0.00234; in that of `O=C(c1ccc2c(c1)OCO2)N1CCN(c2ccc(Cl)cc2)CC1`, -1.39.
In the case of `CC1=C(C#N)C(Nc2cccc(C)n2)(C(F)(F)F)C(=O)N1` (stereo unspecified) it was -0.55; in that of `COC(=O)CC1C(=O)NCCN1C(=S)Nc1cccc(C)c1` (stereo unspecified), 1.08; in that of `O=C(Cc1cccc2ccccc12)Nc1ccc2oc(-c3ccccc3)nc2c1`, 0.245.
In the case of `O=C(Nc1sccc1C(=O)NCc1ccco1)c1cccnc1` it was -1.82.
As to `O=C(O)c1cccc(N2C(=O)C3CC=C(Cl)CC3C2=O)c1` (stereo unspecified), the z-score is -0.289.
In the case of `COC(=O)/C=C1\C(=O)N(c2nc3ccc(OC)cc3s2)C(=S)N1c1ccc(F)cc1` it was 0.0125.
